# Data reported in paper PMC4336329 (PLoS ONE, 2015).
# The campaign covered roughly 310,000 compounds. About 2,200 (0.71%) showed an effect of 50% or more. The effect is printed as a negative number. Some of the results follow.
# Molecular target: human ether-à-go-go-related gene (hERG) potassium channel (human, UniProt Q12809)
# Experiment: primary screen, population patch clamp on CHO cells stably expressing hERG
# Chain of human ether-à-go-go-related gene (hERG) potassium channel (Q12809 whole entry, looked up): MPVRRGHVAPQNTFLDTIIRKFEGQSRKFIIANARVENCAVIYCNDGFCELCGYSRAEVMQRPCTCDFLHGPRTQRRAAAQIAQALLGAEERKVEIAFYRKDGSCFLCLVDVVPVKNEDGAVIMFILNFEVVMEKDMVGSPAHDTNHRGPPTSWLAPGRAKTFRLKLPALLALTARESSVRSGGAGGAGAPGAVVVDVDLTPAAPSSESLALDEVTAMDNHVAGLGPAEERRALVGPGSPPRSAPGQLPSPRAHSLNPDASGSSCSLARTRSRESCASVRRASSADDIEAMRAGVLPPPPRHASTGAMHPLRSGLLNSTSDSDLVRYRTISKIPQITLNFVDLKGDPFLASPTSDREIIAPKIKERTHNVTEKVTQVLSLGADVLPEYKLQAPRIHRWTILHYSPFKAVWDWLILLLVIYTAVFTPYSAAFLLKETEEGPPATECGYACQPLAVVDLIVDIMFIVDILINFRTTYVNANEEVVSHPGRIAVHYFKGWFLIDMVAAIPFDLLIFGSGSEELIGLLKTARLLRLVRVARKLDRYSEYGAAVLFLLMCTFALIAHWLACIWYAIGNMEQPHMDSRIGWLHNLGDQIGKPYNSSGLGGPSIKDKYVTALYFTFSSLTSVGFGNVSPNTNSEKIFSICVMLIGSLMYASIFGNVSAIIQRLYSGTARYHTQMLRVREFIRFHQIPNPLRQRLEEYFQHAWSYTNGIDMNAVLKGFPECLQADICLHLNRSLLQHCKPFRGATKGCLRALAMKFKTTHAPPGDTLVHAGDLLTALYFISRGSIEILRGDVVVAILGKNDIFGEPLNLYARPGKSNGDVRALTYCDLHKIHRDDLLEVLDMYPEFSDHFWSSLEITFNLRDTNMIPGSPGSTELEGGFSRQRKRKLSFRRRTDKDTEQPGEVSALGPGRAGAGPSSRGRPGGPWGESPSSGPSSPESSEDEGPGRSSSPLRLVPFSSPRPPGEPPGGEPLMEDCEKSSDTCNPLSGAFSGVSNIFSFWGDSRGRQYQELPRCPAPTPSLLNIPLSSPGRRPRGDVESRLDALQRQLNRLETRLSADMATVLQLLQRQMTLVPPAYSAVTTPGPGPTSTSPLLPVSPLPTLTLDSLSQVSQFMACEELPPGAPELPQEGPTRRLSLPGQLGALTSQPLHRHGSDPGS
row,Structure (SMILES),"hERG current change (%, negative = inhibition) at 1uM [%]"
1,CCOc1ccc(CN2CCN(S(=O)(=O)c3ccc(NC(C)=O)cc3)CC2)cc1.O=C(O)C(=O)O,-14.8
2,Cc1cccn2c(=O)c3cc(C#N)c(=NC(=O)c4ccncc4)n(CCCOC(C)C)c3nc12,-89.7
3,COc1ccc(NC(=O)C2CCCN(S(=O)(=O)c3cnc[nH]3)C2)cc1 (centres unmarked),-0.603
4,Cc1cc(C)c2oc(C(=O)Nc3ccc(S(=O)(=O)N4CCC(C)CC4)cc3)cc(=O)c2c1,-2.86
5,COC(=O)Cc1csc(Nc2c(C)n(C)n(-c3ccccc3)c2=O)n1,11.8
6,COc1ccc(-n2c(C)n[nH]c2=O)cc1OC,16
7,CCCc1cc(=O)oc2c3c(cc(OCC(=O)N4CCC[C@H]4C(=O)O)c12)OC(C)(C)CC3,7.91
8,O=C(CSc1nnc(-c2ccc(S(=O)(=O)N3CCCC3)cc2)o1)NCC1CCCO1 (centres unmarked),11.2
9,CCN(CC)CCNC(=O)c1cc(S(=O)(=O)N2CCc3ccccc32)cn1C,-40.8
10,O=C(Cn1cnc2scc(-c3ccc(Br)cc3)c2c1=O)N1CCOCC1,-5.12
11,CCc1nnc(NC(=O)C(NS(=O)(=O)c2ccc3c(c2)OCCO3)C(C)C)s1 (centres unmarked),-2.49
12,COc1cc(C(=O)Nc2nnc(C)s2)c([N+](=O)[O-])cc1OC,9.02
13,Cc1ccccc1-n1c(C)n[nH]c1=S,8.99
14,Cc1cccc(OCC(=O)NS(=O)(=O)c2ccc(Br)cc2)c1,10.2
15,COc1cccc(CC(C(=O)Nc2cc(C)ccc2C)c2nn[nH]n2)c1OC (centres unmarked),-4.38
16,CN1c2ccccc2-c2nc3ccccc3n2C1c1ccncc1 (centres unmarked),0.187
17,CCc1nnc(NC(=O)CCNC(=O)c2ccccc2Cl)s1,2.76
18,CCOC(=O)c1c(NC(=O)CSc2nnnn2-c2ccccc2)sc2c1CCC(C)C2 (centres unmarked),-3.15
19,CCOCCCNc1c(CC)c(C)c(C#N)c2nc3ccccc3n12,-7.38
20,Cc1csc(SCC(=O)Nc2nc3ccccc3s2)n1,7.64
21,CCCCNC(=O)O[C@H]1C[C@@H]2CCN3C(=O)CCC[C@H]([C@H]1CC)[C@H]23,0.582
22,Cc1ccc(NC(=O)Cn2nc(C(=O)O)c3ccccc3c2=O)c([N+](=O)[O-])c1,12.3

row,Structure (SMILES),"hERG current change (%, negative = inhibition) at 1uM [%]"
1,CCOc1cc(CNn2cnnc2)cc(Br)c1OCC(=O)NC(C)(C)C,14.4
2,O=C1CN(C(=O)COC(=O)c2cccc(OCc3ccccc3)c2)c2ccccc2N1,0.999
3,O=S(=O)(c1cnc(Cl)c(Br)c1)N1CCN(c2ncccn2)CC1,11.5
4,COc1ccccc1OCCn1cc(/C=N/n2cnnc2)c2ccccc21,11.6
5,O=C(c1ccc2c(c1)OCO2)C1CCCN(Cc2cn[nH]c2-c2ccccc2)C1 (centres unmarked),-67.3
6,CCCC1(C)Nc2ccccc2-c2nc3ccccc3n21 (centres unmarked),1.59
7,Cc1ccc(-n2nnnc2SCC(=O)c2c(N)n(CC(C)C)c(=O)n(C)c2=O)cc1,-31.8
8,Cc1ccc(-c2cc(C(=O)O)c3cc(Br)ccc3n2)s1,10.4
9,Cc1ccc2nc(-c3cccnc3SCC(=O)N3c4ccccc4CC3C)[nH]c2c1 (centres unmarked),12
10,CSc1nccc(-c2sc(SC)c(C#N)c2-c2ccccc2)n1,14.5
11,CC1CCC(NC(=O)CCNC(=O)c2ccccc2)CC1 (centres unmarked),10.4
12,CCCCN(CC)C(=O)Cn1nc(Cc2ccncc2)c2ccccc2c1=O,0.392
13,O=[N+]([O-])c1ccc(N2CCC(=NOCc3ccc(Cl)cc3)CC2)cc1,-13.9
14,Cc1nn(CC(=O)NCCC2=CCCCC2)c(C)c1[N+](=O)[O-],11.5
15,O=C(Cc1ccc(F)cc1)N1CCOCC1,15.3
16,CCCN(CCC)C(=O)Cn1c(=O)n(CCCCC(=O)NCc2ccco2)c(=O)c2ccccc21,-1.34
17,CCc1nnc(NC(=O)CCNC(=O)c2ccco2)s1,9.02
18,COC(=O)COc1cc(OCC(=O)OC)c2c(-c3ccccc3)cc(=O)oc2c1,7.12
19,COc1ccc(NC(=O)CC(c2ccc(F)cc2)c2ccc(OC)cc2)cc1 (centres unmarked),16.7
20,Cc1nnc2n(C)c(=O)c3c4c(sc3n12)COC(C)(C)C4,8.77
21,Cc1ccc(N2CCN(S(=O)(=O)c3ccc(F)c(C)c3)CC2)c(C)c1,4.57
22,O=C(CSc1nc(O)c(Cc2ccccc2)c(=O)n1-c1ccccc1)N1CCOCC1,-2.88
